Assay results: PubChem BioAssay AID686978 (National Center for Advancing Translational Sciences (NCATS), 2013)
“And” between values parts separate entries of the source, which are not always exact repeats. Equal values may be shown once. About 64,000 (15%) of roughly 420,000 compounds were called active. Inconclusive results, whose numbers are uncertain, are shown with a selection of clear calls. The call rests on the fitted dose curve; in most records, active means well fitted inhibition curve with a large enough effect; inconclusive means small, poorly fitted or top-dose-only effect; inactive means flat fitted curve, though single readings scatter. A potency beside an inconclusive call is a rough fit, not a confirmed value.

assay: qHTS for Inhibitors of human tyrosyl-DNA phosphodiesterase 1 (TDP1): qHTS in cells in absence of CPT; details: DT40 Tdp1-/- hTDP1 cells, no CPT, ATP luminescence, 48 h; activity change, negative = growth inhibition: at 46.2 µM (top of the series) unless noted; further: nearly all actives have a fitted effect of over 55% in size
Outline: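 Readout: luminescence from CellTiter-Glo after 30 min in the dark at RT. Cells: DT40 Tdp1-/- with stable hTDP1, 400/well. Exposure: compounds alone, ≥48 hr, 37 °C.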
On the % scale 0 is the no-effect control and ±100 the full control effect; potency means the concentration at half of the fitted maximal effect; tags describe the fitted curve by direction and shape.

Row | SMILES | Potency | activity change, negative = growth inhibition
1 | COc1cccc(-c2sc3ccc(OC)cc3c2C#CCC(C)O)c1 (centres undefined) | inconclusive: 25.9 µM [inhibitor, single point] | 
2 | CCc1nnc(NC(=O)c2cc(-c3ccc(C)o3)nc3ccccc23)s1 | inconclusive: 29.1 µM [inhibitor, single point] | 
3 | CCOC(=O)c1c(C)[nH]c(C)c1C(=O)COC(=O)c1ccc(OC)cc1 |  | inactive: -15.7%
4 | CCC(=O)N(Cc1cc2c(C)ccc(C)c2[nH]c1=O)C1CCCCC1 | active: 16.4 µM | 
5 | O=C(Nc1c(F)cc(F)cc1Br)c1cc(-c2ccc(O)cc2)on1 | inconclusive: 29.1 µM [inhibitor, single point] | 
6 | COC(=O)c1ccc(NC(=O)COc2ccc(S(=O)(=O)NC(C)C)cc2)cc1 |  | inconclusive: -35.9% [inhibitor]
7 | COc1ccc(/C=N/NC(=O)c2ccccc2OC)cc1COc1ccccc1[N+](=O)[O-] | active: 29.1 µM | 
8 | COc1cccc(C(=Cc2ccc([N+](=O)[O-])cc2)C(=O)O)c1 | inconclusive: 8.2 µM [inhibitor, partial curve] | 
9 | Cc1ccc(C)c(-c2nnc(NC(=O)CCS(=O)(=O)c3ccc(F)cc3)o2)c1 | inconclusive: 23.1 µM [inhibitor, single point] | 
10 | C=CCn1c(SCC(=O)NC(=O)c2cccc([N+](=O)[O-])c2)nnc1-c1ccccc1 |  | inactive: -8.85%
11 | c1ccc(CSc2ncnc3c2cnn3Cc2ccccc2)cc1 | inconclusive: 29.1 µM [inhibitor, single point] | 
12 | CCCCN(C)CCCNC(=O)c1ccc2nc(N3CCCCC3)sc2c1 | inconclusive: 29.1 µM [inhibitor, single point] | 
13 | COC(=O)[C@]12CCCCC=C1N(Cc1ccco1)C(=O)[C@H](CC(=O)N1CCN(C(=O)c3ccco3)CC1)C2 | inconclusive: 32.6 µM [inhibitor, single point] | 
14 | Cc1[nH]c2ccccc2c1-c1nc2ccccc2[nH]1 | inconclusive: 16.4 µM [inhibitor, single point] | 
15 | O=C(CC(=O)Nc1cc(Cl)ccc1Cl)Nc1cc(Cl)ccc1Cl |  | inactive: 17.6%
16 | O=C(CCNC(=O)c1ccc(Br)cc1)Nc1cccc(S(=O)(=O)N2CCCCCC2)c1 | inconclusive: 16.4 µM [inhibitor, partial curve] | 
17 | COc1ccc(NC(=O)C2CCCN(c3nn4c(=O)cc(C)nc4s3)C2)cc1 (centres undefined) | inconclusive: 29.1 µM [inhibitor, single point] | 
18 | COc1ccc(C(=O)N2CCC3(CC2)CCN(c2ccccc2)CC3)cc1 | inconclusive: 18.4 µM [inhibitor, single point] | 
19 | O=C(Nc1ccc(Br)cn1)c1coc(=O)c(Br)c1 | active: 3.66 µM | 
20 | CCOc1cccc(-c2nc3c(s2)CCc2onc(-c4cccc([N+](=O)[O-])c4)c2-3)c1 |  | inactive: -14.5%
21 | Cc1cc(C)n2nc(C(=O)Nc3ccc(N4CCOCC4)cc3)nc2n1 |  | inactive: -27.5%
22 | COc1ccc(C(=O)N2CCC3(CCCN(Cc4ccc(C#N)cc4)C3)CC2)cc1 | active: 18.4 µM | 
23 | Cc1ccc(N2CCN(S(=O)(=O)N(C)C)CC2)cc1Cl | inconclusive: 23.1 µM [inhibitor, single point] | 

Row | SMILES | Potency | activity change, negative = growth inhibition
24 | COc1ccccc1NC(=O)COc1cccc(-n2cnnn2)c1 |  | inactive: 3.46%
25 | N#CC1=C(N)N(c2ccccc2)C(c2ccco2)C1(C#N)C#N (centres undefined) | inconclusive: 13 µM [inhibitor, partial curve] | 
26 | COc1ccc(C2=Nn3c(nnc3-c3ccco3)SC2)cc1OC | active: 23.1 µM | 
27 | Cc1cccc(OCCSc2nc3ccccc3n2CC(=O)N2CCCCC2)c1C | active: 23.1 µM | 
28 | COc1ccc(NC(=O)N(C)C[C@H]2Oc3c(NC(=O)Nc4ccc5c(c4)OCO5)cccc3C(=O)N([C@H](C)CO)C[C@@H]2C)cc1 | inconclusive: 18.4 µM [inhibitor, single point] | 
29 | Cn1c(N)c(C(=O)COC(=O)Cc2ccc(Cl)c(Cl)c2)c(=O)n(C)c1=O | inconclusive: 29.1 µM [inhibitor, single point] | 
30 | CCOc1ccccc1NC(=O)Cc1ccccc1OC |  | inconclusive: -36.3% [inhibitor]
31 | COc1ccc(NC(=O)c2sc3nc(N4CCCC4)c4c(c3c2N)CC(C)(C)OC4)cc1 | inconclusive: 18.4 µM [inhibitor, single point] | 
32 | CCN(Cc1ccccc1)Cc1c(O)ccc2c(=O)c(-c3ccccc3OC)c(C(F)(F)F)oc12 | active: 25.9 µM | 
33 | CCOC(=O)c1ccc(NC(=S)NC2CC(C)(C)NC(C)(C)C2)cc1 | inconclusive: 23.1 µM [inhibitor, single point] | 
34 | COC(=O)c1ccc2nc(C)cc(Nc3ccccc3C)c2c1 | inconclusive: 18.4 µM [inhibitor, single point] | 
35 | Cc1ccc(Cn2c(CNS(=O)(=O)c3c(C)cc(C)cc3C)nc3cccnc32)cc1 | inconclusive: 18.4 µM [inhibitor, single point] | 
36 | CC(=O)Nc1nonc1-c1nnc(SCC(=O)Nc2ccc(F)cc2F)n1-c1ccccc1 | inconclusive: 14.6 µM [inhibitor, partial curve] | 
37 | CC1(C)C[C@H]2C3=CCC4[C@@]5(C)CC[C@H](O[C@@H]6O[C@H](C(=O)O)[C@@H](O)[C@H](O)[C@H]6O)[C@@](C)(CO)C5CC[C@@]4(C)[C@]3(C)C[C@H](O)[C@@]2(CO)[C@@H](O)[C@@H]1O (some centres undefined) |  | inactive: -0.0471%
38 | N#Cc1nc(COc2ccccc2Cl)oc1N1CCCC1 | inconclusive: 20.6 µM [inhibitor, partial curve] | 
39 | Cc1c(NC(=O)[C@@H](NC(=O)c2ccc(Cl)c([N+](=O)[O-])c2)C(C)C)c(=O)n(-c2ccccc2)n1C | inconclusive: 29.1 µM [inhibitor, single point] | 
40 | Cc1ccc(C(=O)CSC2=C(C#N)C(c3ccco3)C3=C(CC(C)(C)CC3=O)N2)cc1 (centres undefined) | active: 10.3 µM | 
41 | COC(=O)CCN(C(=O)c1ccc([N+](=O)[O-])cc1)c1ccccn1 |  | inactive: 7.17%
42 | COc1ccc(C2=NN(c3nc4ccccc4s3)C(=O)C2)cc1 | inconclusive: 29.1 µM [inhibitor, single point] | 
43 | CCOC(=O)c1ccc(N2CCN(c3cc(Cl)ccc3C)CC2)c(NC(=O)Nc2cccc(OC)c2)c1 | active: 9.2 µM | 
44 | CCN(CC1COc2ccccc2O1)C(=S)Nc1ccc(F)cc1 (centres undefined) | inconclusive: 29.1 µM [inhibitor, single point] | 
45 | COc1ccccc1NC(=O)c1oc2ccc(C)cc2c1C | inconclusive: 20.6 µM [inhibitor, partial curve, poor fit] | 
46 | CC1=CSC2=NC(=O)/C(=C\c3cccn3-c3ccccc3)C(=N)N12 | inconclusive: 29.1 µM [inhibitor, single point] | 

Row | SMILES | Potency | activity change, negative = growth inhibition
47 | Cc1ccccc1NS(=O)(=O)c1ccc(C(=O)NCC(c2ccco2)N2CCCCC2)cc1 (centres undefined) | active: 23.1 µM | 
48 | Fc1ccc(/C=N/NC(=S)NCCc2ccccc2)cc1F | inconclusive: 29.1 µM [inhibitor, single point] | 
49 | O=C(Nc1ccc2c(c1)CCC2)c1ncoc1-c1ccccc1F | inconclusive: 16.4 µM [inhibitor, partial curve] | 
50 | COc1ccc(OC)c(C(=O)Cn2c3[n+](c4ccc(C(F)(F)F)cc42)CCCCC3)c1 | active: 5.8 µM | 
51 | COc1ccc(C(=O)N2CCCCC2c2cc(C(=O)NCc3ccc(F)cc3)no2)cc1 (centres undefined) | inconclusive: 23.1 µM [inhibitor, single point] | 
52 | CCc1ccc(N2CC(C(=O)Nc3ccccc3F)CC2=O)cc1 (centres undefined) |  | inactive: -2.35%
53 | CCOC(=O)N1CCN(S(=O)(=O)N2CCCC(C(=O)NCc3cc(OC)ccc3OC)C2)CC1 (centres undefined) | inconclusive: 23.1 µM [inhibitor, partial curve] and inconclusive: 11.6 µM [inhibitor, partial curve] | 
54 | Clc1cccc(Cn2ncc3ccccc32)c1 |  | inactive: -14.6%
55 | Cc1nc(CC(=O)Nc2ccc(C)c(C)c2)cs1 |  | inactive: -14.6%
56 | CC(C(=O)Nc1ccc(Cl)cc1Cl)N1C(=O)NC2(CCCC2)C1=O (centres undefined) | inconclusive: 18.4 µM [inhibitor, partial curve, poor fit] | 
57 | COc1ccc(Cl)cc1NS(=O)(=O)c1cccc(C(=O)NC2CCN(Cc3ccccc3)CC2)c1 | inconclusive: 20.6 µM [inhibitor, single point] | 
58 | CC(=O)NCCNc1nc(NCC2CC2)nc2cc(-c3ccccc3)sc12 | inconclusive: 18.4 µM [inhibitor, single point] | 
59 | COc1ccc(CCNC(=O)C2CCN(S(=O)(=O)c3ccc(SC)cc3)CC2)cc1 |  | inactive: -10.7%
60 | COc1ccc(C)cc1NC(=O)CN1C(=O)COc2ccc(C)cc21 |  | inactive: 0.145%
61 | CCc1ccc(OCC(=O)N(Cc2cccs2)c2ccc(Cl)cc2)cc1 | inconclusive: 13 µM [inhibitor, partial curve] | 
62 | CC(=O)c1cccc(NC(=O)CCNC(=O)c2cccc(C)c2)c1 |  | inactive: -0.637%
63 | COc1ccc(NC(=O)C2CCCN(CCCc3ccccc3)C2)cc1OCC(C)C (centres undefined) | active: 5.17 µM | 
64 | CN(C)S(=O)(=O)c1ccc(Cl)c(C(=O)NC2=NCCS2)c1 |  | inactive: 3.5%
65 | c1cncc(-c2nc(N3CCNCC3)c3ccccc3n2)c1 | inconclusive: 29.1 µM [inhibitor, single point] | 
66 | Cc1ccc(C)c(NC(=O)CCC(=O)NNC(=O)c2cccc([N+](=O)[O-])c2)c1 |  | inactive: -2.15%
67 | O=C(CN1CCN(S(=O)(=O)c2ccc(Br)cc2)CC1)N/N=C/c1cccs1 |  | inactive: -28.7%
68 | Cn1cc(CNC(=O)c2ccc(OC3CCN(Cc4ccccn4)CC3)cc2)cn1 |  | inactive: -13%
69 | O=C(Nc1ccc(OC(F)F)cc1)c1nc(S(=O)(=O)Cc2ccccc2F)ncc1Cl | active: 1 µM | 
